Laboratory results: PMC6919601, “Identification of Plasmodium dipeptidyl aminopeptidase allosteric inhibitors by high throughput screening” (PLoS ONE, 2019)
Hit rate of the full screen: of about 110,000 compounds, about 230 (0.21%) showed an effect of 50% or more. The list shows a part of the results.

Biological target: DPAP1 (Plasmodium falciparum, UniProt Q8IIJ9)
Assay: primary screen, percent inhibition; read by cleavage of a fluorogenic dipeptide substrate; higher = more effect of the substance
Design: species or system P. falciparum D10 trophozoite lysates; single well
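Also: 30 min substrate incubation versus DMSO and 10 µM JCP410 controls.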

DPAP1, sequence (Q8IIJ9 whole entry, looked up): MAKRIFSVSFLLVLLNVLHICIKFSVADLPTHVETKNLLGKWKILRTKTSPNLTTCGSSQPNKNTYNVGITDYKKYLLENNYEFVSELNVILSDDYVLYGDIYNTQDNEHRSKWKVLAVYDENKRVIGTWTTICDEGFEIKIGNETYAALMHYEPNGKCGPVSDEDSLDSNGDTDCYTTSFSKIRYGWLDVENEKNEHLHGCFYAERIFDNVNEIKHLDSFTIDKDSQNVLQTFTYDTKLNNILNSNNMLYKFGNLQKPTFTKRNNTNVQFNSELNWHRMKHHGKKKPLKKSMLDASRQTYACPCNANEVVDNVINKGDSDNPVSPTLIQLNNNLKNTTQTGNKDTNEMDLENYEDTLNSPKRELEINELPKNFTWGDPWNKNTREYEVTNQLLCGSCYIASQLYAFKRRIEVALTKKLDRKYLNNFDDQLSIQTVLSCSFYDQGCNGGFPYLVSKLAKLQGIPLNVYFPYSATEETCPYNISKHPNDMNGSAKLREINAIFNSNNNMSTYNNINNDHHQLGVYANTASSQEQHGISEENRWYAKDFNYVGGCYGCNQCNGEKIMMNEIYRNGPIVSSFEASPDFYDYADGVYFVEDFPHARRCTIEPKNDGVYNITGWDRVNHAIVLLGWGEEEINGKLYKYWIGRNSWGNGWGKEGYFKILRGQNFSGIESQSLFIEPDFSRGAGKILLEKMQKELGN

Structure (SMILES) | % Inhibition @ 10 uM
COc1ccc(C(=O)Nc2cc(Cl)ccc2O)cc1Cl | -7.83%
COc1ccc2nc(NC(=O)CSc3nc(C)cc(C)n3)sc2c1 | -3.9%
CN(C)c1ccc(/C=C2\NC(=O)c3ccccc3C2=O)cc1 | 8.95%
CC(NC(=O)Cn1nc(C(F)(F)F)c2c1CCC2)c1ccccc1 (stereo not drawn) | -4.62%
Cc1ccc(C(=O)NCCN2CCCC2)cc1 | -1.78%
CC(C)C(NC(=O)c1ccc(-c2csc(N=C(N)N)n2)cc1)C(=O)NCC#N (stereo not drawn) | -0.778%
CC(=O)NS(=O)(=O)c1ccc(NC(=O)C2(c3ccccc3)CCOCC2)cc1 | 3.17%
O=C1OC(c2cccc3ccccc23)=N/C1=C/c1ccc2c(c1)OCO2 | -2.18%
Cc1cc2c(c(=O)n1Cc1cccnc1)C(c1ccc(F)cc1)C(C#N)=C(N)O2 (stereo not drawn) | -4.78%
CC1=C(C(=O)OCc2ccccc2)C(c2ccc(Cl)c(Cl)c2)NC(=O)N1 (stereo not drawn) | -2.87%
Cc1ccccc1Cn1nc(C)c(NC(=O)CCn2cc(Br)cn2)c1C | -3.71%
O=S(=O)(c1cc(Cl)ccc1Br)N1CCOCC1 | -4.18%
Cc1ccc2nc(N(CCN(C)C)C(=O)COc3ccccc3)sc2c1 | -5.01%
COc1ccc(CCNC(=O)/C(C#N)=C/c2ccc(C)o2)cc1OC | 2.57%
CCC(Cc1ccccc1)NC(=O)Cn1cc2c(n1)CCC(C)C2 (stereo not drawn) | 3.4%
COc1ccc(-c2nonc2NC(=O)c2ccc(F)cc2)cc1OC | 2.29%
O=C(O)c1cccc(NC2=C(Cl)C(=O)N(c3cc(Cl)ccc3Cl)C2=O)c1 | -3.46%
CC1=C(C#N)C(c2ccc(Cl)cc2Cl)C2=C(O)CC(C)(C)CC2=N1 (stereo not drawn) | 18%
COc1c(Cl)cc(-c2noc(C)c2C(=O)NC(C)C)cc1Cl | 1.27%
CC(NS(=O)(=O)c1ccc(OCC(=O)Nc2cccc3ccccc23)cc1)c1ccccc1 (stereo not drawn) | 1.7%
N#CCNC(=O)C(Cc1c(F)cccc1F)NC(=O)c1cc(-c2ccccc2)c(-c2ccccc2)s1 (stereo not drawn) | -1.82%
N#CCCN1C(=O)c2ccccc2C1=O | -4.64%
CC(C)CCNS(=O)(=O)c1ccc2nc(O)oc2c1 | 7.53%
CC(C(=O)N1CCCCCC1)n1sc2ccccc2c1=O (stereo not drawn) | -4.59%
CCCCc1c(O)nc2ccc(OC)cc2c1O | 16.7%
COc1ccc(S(=O)(=O)N2CCN(C/C=C/c3ccccc3)CC2)c2ccccc12 | -4.33%

Structure (SMILES) | % Inhibition @ 10 uM
O=C(c1cnn(-c2ccccc2)c1-n1cccc1)N1CCN(Cc2ccc3c(c2)OCO3)CC1 | 0.137%
C=CCn1c(SCC(=O)NC(N)=O)nc2sc3c(c2c1=O)CCCC3 | 2.38%
CCOC(=O)C1=C(C)N=c2s/c(=C\c3ccc(Cl)cc3)c(=O)n2C1c1ccccc1F (stereo not drawn) | 1.84%
COc1ccccc1N1CCN(S(=O)(=O)c2ccc(C)cc2)CC1 | -4.35%
COc1ccc(C2C3=C(CC(C)(C)CC3=O)OC3=C2C(=O)CC(C)(C)C3)cc1Br | -3.92%
Cc1ccc(/N=c2/sc(C)c(C)n2C)cc1 | -4.16%
CC(C)(C)c1ccc(C(=O)Nc2ccccc2Cl)cc1 | -0.546%
CCc1sc(NC(=O)CCCC(=O)O)nc1-c1ccccc1 | -0.99%
Cc1nc2cc(NC(=O)NC3CCCCC3)ccc2o1 | -5.23%
COc1ccc(NC(=O)CC(C)(C)C)cc1Cl | 7.45%
CC1CN(C(=O)C(C(=O)N2CC(C)c3ccccc32)C23CC4CC(CC(C4)C2)C3)c2ccccc21 (stereo not drawn) | 1.88%
O=C(c1cccc(COc2ccc(Cl)cc2Cl)c1)N1CCOCC1 | 0.413%
Cc1ccc(C2CCN(C(=S)NCc3ccccc3)C2)cc1 (stereo not drawn) | 0.718%
O=C(NCc1cccnc1)[C@H](Cc1ccccc1)N1Cc2ccccc2C1=O | 4.54%
CC(C)C[C@H](NC(=O)c1ccc(OC(F)F)cc1)C(=O)NCC#N | 3.19%
COc1ccc(N2CCN(C(=O)C(C)Oc3ccccc3)CC2)cc1 (stereo not drawn) | 0.205%
CCc1ccc(CNCc2cccnc2)cc1 | 1.37%
COCc1cc(O)nc(SCC(=O)Nc2ccc(Br)cc2)n1 | -6.69%
CCOc1ccc(/C=N/c2sc3c(c2C#N)CCCC3)cc1 | -3.48%
Cc1cc(C)cc(OCC(O)CN2CCCCC2)c1 (stereo not drawn) | 1.29%
Cc1ccc2[nH]c(C3=C(N)N(C(C)c4ccccc4)CC3=O)nc2c1 (stereo not drawn) | -1.22%
Cc1ccc(S(=O)(=O)NC(C)C(=O)Nc2ccc(F)cc2)cc1 (stereo not drawn) | -5.49%
CCOC(=O)c1nnn(-c2nc(N)nc(N(C(C)C)C(C)C)n2)c1-c1ccccc1 | -2.28%
O=C(O)CCCCCNC(=O)c1ccncc1 | -1.52%
CC(C)Cn1c(=O)c2sccc2n2c(CCCC(=O)O)nnc12 | -3.85%
